# Assay results: PubChem BioAssay (Tox21)
# Several values for one entry are separate records, joined by “and”; a condition that tells them apart may be missing. Equal values may be shown once. This list was built around the results that the source calls inconclusive (neither active nor inactive); the mix of calls is not that of the screen. Potencies of inconclusive entries are doubtful fits and often do not repeat. A structure can be active in one record and inactive in another. Activity calls are given as the source filed them. Unless noted, the call rests on the fitted dose curve; in most records, active means well fitted curve in the direction sought with a large enough effect in the repeat runs; inconclusive means weak or mixed curves; inactive means no such curve, though single readings can be large; an effect the other way counts as inactive or inconclusive.
# Legend:
# [1] = qHTS assay to identify small molecule antagonists of the TGF-beta/Smad signaling pathway (AID 1346924; active means well fitted inhibition curve with a large enough effect in the signal ratio in the repeat runs, not every such curve was filed as active; inconclusive means weak or mixed curves; the % refers to the signal ratio); settings: SBE-bla HEK293T, TGF-beta/Smad reporter, beta-lactamase ratio; activity, negative = inhibition: at 76.8 µM (top of the series) unless noted
# Procedure, shortened: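 Read-out was FRET-substrate fluorescence (405 nm excitation; 460 and 530 nm emission) after 2 h at room temperature. Before that, cells carrying a Smad-binding-element beta-lactamase reporter in HEK 293T had been stimulated 5 h at 37 C with TGF-beta1 (0.25 ng/mL addition solution) in the presence of test compound.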
# [2] = Caspase-3/7 induction in HepG2 cells by small molecules, qHTS assay (AID 1346978); settings: HepG2 caspase-3/7 activation, Caspase-Glo luminescence, 17 h; series mostly up to 92.4 µM; further: nearly all actives have a fitted effect of over 15% in size
# Procedure, shortened: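 Wild-type HepG2 cells (2,000/well) were settled 5 h at 37 C, 5% CO2, then exposed to compounds in DMSO for 17 h. Caspase-3/7 activity was read by luminescence 30 min after adding Caspase-Glo 3/7 reagent at room temperature.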
# [3] = Caspase-3/7 induction in HepG2 cells by small molecules, qHTS cell viability counter screen (AID 1346981); settings: CellTiter-Fluor fluorescence, 17 h; series mostly up to 92.4 µM; further: nearly all actives have a fitted effect of over 30% in size
# Procedure, shortened: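 The parent HepG2 line is plated at 2,000 cells per well and rested 5 hr before compound pinning from DMSO stocks. Following a 16-hr treatment at 37 C, a fluorogenic live-cell substrate (CellTiter-Fluor) reports viability after 1 hr.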
# [4] = molecular target: Nuclear receptor subfamily 1 group I member 2 (Homo sapiens) (UniProt O75469); assay: Human pregnane X receptor (PXR) small molecule agonists, qHTS assay (AID 1346982); settings: PXR-Luc HepG2, CYP3A4 luciferase reporter, 24 h; series mostly up to 92.4 µM; further: nearly all actives have a fitted effect of over 35% in size
# Procedure, shortened: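 After plating in 5% charcoal-stripped FBS and a 5 hr rest, PXR-Luc HepG2 cells received compounds in DMSO. Following 24 hr at 37 C, ONE-Glo was added and light output read.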
# [5] = molecular target: Nuclear receptor subfamily 1 group I member 2 (Homo sapiens) (UniProt O75469); assay: Human pregnane X receptor (PXR) activation by small molecules, qHTS assay (AID 1346985); settings: DPX-2 HepG2 CYP3A4-luciferase, 24 h; series mostly up to 38.3 µM; further: nearly all actives have a fitted effect of over 40% in size
# Procedure, shortened: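 DPX-2 cells (HepG2 co-transfected with a PXR response element and a CYP3A4-promoter luciferase construct) were seeded at 2,000 per well, rested 5 hr at 37C, then exposed to DMSO-dissolved compounds for 24 hr. Activation was read as luciferase luminescence.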
# [6] = molecular target: Voltage-gated inwardly rectifying potassium channel KCNH2 (Homo sapiens) (UniProt Q12809); assay: Human Ether-a-go-go-Related Gene (hERG) channel small molecule antagonists: fluorescence cell-based qHTS assay (AID 1671200); settings: hERG-U2OS cells, FluxOR thallium flux fluorescence; series mostly up to 76.8 µM; further: nearly all actives have a fitted effect of over 50% in size
# Procedure, shortened: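 In this thallium-flux screen, overnight-cultured U2OS cells bearing the channel are dye-loaded in darkness for an hour, rested 10 min at room temperature, and then monitored kinetically at 480/540 nm for two minutes post-stimulus.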
# [7] = Human pregnane X receptor (PXR) small molecule agonists, qHTS cell viability counter screen (AID 1346977); settings: PXR-Luc HepG2 viability, CellTiter-Fluor, 24 h; series mostly up to 92.4 µM; further: nearly all actives have a fitted effect of over 50% in size
# Procedure, shortened: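 In each well, the PXR reporter HepG2 line was checked for viability: CellTiter-Fluor reagent added 23hr post-dosing, fluorescence read after 1hr incubation at 37C.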
# [8] = molecular target: Cytochrome P450 2C19 (Homo sapiens) (UniProt P33261); assay: Cytochrome P450 Family 2 Subfamily C Member 19 (CYP2C19) small molecule antagonists: luciferase reporter qHTS assay (AID 1671197); settings: P450-Glo CYP2C19 enzyme, luciferin luminescence, 1 h; series mostly up to 115 µM; further: nearly all actives have a fitted effect of over 65% in size
# Procedure, shortened: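 P450-Glo CYP2C19 system: enzyme-substrate mix with compound 10 min at room temperature, then NADPH regeneration solution, 1 h at 37C. Proluciferin-to-luciferin conversion detected by luminescence after 20 min with detection reagent; ketoconazole as positive control.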
# [9] = molecular target: Cytochrome P450 2C9 (Homo sapiens) (UniProt P11712); assay: Cytochrome P450 Family 2 Subfamily C Member 9 (CYP2C9) small molecule antagonists: luciferase reporter qHTS assay (AID 1671198); settings: P450-Glo CYP2C9 enzyme assay, luciferin luminescence; series mostly up to 115 µM; further: nearly all actives have a fitted effect of over 50% in size
# Procedure, shortened: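 CYP2C9 activity was measured with a P450-Glo proluciferin substrate. Enzyme–substrate mix was held with compound for 10 min at room temperature, then NADPH regeneration solution was added for 1 h at 37C. Luciferin product was read as luminescence.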
# [10] = Caspase-3/7 induction in CHO-K1 cells by small molecules, qHTS cell viability counter screen (AID 1346979); settings: CellTiter-Fluor fluorescence, 17 h; series mostly up to 92.4 µM; further: nearly all actives have a fitted effect of over 35% in size
# Procedure, shortened: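 Following a 5hr settling period, CHO-K1 cells at 1,500 per well received DMSO-dissolved compounds. Cell viability was quantified 16hr later by CellTiter-Fluor fluorescence, measured after 1hr with reagent at 37C.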
# [11] = molecular target: Cytochrome P450 2D6 (Homo sapiens) (UniProt P10635); assay: Cytochrome P450 Family 2 Subfamily D Member 6 (CYP2D6) small molecule antagonists: luciferase reporter qHTS assay (AID 1671196); settings: P450-Glo CYP2D6 enzyme assay, luciferin luminescence, 1 h; series mostly up to 115 µM; further: nearly all actives have a fitted effect of over 50% in size
# Procedure, shortened: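 Quantitative HTS of Tox21 chemicals against CYP2D6 using a luminescent proluciferin substrate. After NADPH addition, 1 h room-temperature reaction; luminescence recorded 20 min post detection reagent.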
# [12] = molecular target: Cytochrome P450 1A2 (Homo sapiens) (UniProt P05177); assay: Cytochrome P450 Family 1 Subfamily A Member 2 (CYP1A2) small molecule antagonists: luciferase reporter qHTS assay (AID 1671199); settings: P450-Glo CYP1A2 enzyme, luciferin luminescence, 1 h; series mostly up to 115 µM; further: nearly all actives have a fitted effect of over 50% in size
# Procedure, shortened: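 Quantitative high-throughput format using the P450-Glo CYP1A2 system. Reaction initiated by NADPH regeneration solution, 1 h at room temperature, then stopped with detection reagent; luminescence measured 20 min later.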
# Potency means the concentration at half of the fitted maximal effect; tags describe the fitted curve by direction and shape or compound fluorescence and quenching.
# Chain of UniProt P33261 (P33261 whole entry, looked up): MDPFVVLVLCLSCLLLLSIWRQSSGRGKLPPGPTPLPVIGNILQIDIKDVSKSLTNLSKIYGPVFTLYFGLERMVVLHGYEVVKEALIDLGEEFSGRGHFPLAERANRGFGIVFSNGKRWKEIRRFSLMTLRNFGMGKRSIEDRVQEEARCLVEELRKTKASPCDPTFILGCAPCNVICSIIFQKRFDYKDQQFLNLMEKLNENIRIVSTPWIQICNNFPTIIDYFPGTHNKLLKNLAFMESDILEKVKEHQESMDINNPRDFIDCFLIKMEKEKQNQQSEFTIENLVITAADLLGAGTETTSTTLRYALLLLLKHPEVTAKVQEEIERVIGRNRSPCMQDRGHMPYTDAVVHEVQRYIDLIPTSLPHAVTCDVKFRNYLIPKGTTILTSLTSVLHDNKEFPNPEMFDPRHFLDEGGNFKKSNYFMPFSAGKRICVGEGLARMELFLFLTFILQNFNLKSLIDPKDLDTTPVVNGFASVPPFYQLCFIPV
# Chain of UniProt P10635 (P10635 whole entry, looked up): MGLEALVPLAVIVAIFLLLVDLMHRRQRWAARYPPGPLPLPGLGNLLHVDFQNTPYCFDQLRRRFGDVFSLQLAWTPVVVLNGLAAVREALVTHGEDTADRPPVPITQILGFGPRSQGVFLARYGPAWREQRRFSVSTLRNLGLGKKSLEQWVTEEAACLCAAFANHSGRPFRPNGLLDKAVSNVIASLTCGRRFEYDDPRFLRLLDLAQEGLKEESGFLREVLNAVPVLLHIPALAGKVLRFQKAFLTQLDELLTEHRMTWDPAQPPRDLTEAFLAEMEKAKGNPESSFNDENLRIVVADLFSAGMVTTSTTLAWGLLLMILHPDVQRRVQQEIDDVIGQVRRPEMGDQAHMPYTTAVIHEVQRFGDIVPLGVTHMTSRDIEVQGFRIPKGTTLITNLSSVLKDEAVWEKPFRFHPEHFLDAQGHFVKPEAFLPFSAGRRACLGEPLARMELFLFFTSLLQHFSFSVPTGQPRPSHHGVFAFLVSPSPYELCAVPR
# Chain of UniProt P11712 (P11712 whole entry, looked up): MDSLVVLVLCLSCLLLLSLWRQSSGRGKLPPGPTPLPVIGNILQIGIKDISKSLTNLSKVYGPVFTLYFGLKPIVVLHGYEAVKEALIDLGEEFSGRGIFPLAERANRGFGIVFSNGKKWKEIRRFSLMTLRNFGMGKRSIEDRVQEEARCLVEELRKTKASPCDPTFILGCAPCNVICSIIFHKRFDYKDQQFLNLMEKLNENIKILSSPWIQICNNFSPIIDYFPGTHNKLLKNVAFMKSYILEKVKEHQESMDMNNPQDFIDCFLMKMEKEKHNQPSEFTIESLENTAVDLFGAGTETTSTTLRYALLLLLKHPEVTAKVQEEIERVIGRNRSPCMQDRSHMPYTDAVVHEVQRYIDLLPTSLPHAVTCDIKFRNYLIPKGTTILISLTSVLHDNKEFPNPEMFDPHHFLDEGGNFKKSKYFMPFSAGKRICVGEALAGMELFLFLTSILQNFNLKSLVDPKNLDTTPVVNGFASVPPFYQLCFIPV
# Chain of UniProt P05177 (P05177 whole entry, looked up): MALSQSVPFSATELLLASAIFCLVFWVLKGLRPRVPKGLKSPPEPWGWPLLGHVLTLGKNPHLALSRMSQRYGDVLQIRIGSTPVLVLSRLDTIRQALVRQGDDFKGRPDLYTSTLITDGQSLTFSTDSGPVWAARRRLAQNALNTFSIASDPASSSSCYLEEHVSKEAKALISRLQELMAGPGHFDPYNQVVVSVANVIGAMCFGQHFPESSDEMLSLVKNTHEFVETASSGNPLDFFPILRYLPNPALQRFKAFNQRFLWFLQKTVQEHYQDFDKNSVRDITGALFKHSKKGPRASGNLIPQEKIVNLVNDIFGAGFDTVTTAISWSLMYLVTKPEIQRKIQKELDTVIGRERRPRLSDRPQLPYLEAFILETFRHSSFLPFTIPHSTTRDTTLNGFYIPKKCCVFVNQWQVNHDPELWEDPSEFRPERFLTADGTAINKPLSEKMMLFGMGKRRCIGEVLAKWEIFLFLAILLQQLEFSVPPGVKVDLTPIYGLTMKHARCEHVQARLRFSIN
# Chain of UniProt Q12809 (Q12809 whole entry, looked up): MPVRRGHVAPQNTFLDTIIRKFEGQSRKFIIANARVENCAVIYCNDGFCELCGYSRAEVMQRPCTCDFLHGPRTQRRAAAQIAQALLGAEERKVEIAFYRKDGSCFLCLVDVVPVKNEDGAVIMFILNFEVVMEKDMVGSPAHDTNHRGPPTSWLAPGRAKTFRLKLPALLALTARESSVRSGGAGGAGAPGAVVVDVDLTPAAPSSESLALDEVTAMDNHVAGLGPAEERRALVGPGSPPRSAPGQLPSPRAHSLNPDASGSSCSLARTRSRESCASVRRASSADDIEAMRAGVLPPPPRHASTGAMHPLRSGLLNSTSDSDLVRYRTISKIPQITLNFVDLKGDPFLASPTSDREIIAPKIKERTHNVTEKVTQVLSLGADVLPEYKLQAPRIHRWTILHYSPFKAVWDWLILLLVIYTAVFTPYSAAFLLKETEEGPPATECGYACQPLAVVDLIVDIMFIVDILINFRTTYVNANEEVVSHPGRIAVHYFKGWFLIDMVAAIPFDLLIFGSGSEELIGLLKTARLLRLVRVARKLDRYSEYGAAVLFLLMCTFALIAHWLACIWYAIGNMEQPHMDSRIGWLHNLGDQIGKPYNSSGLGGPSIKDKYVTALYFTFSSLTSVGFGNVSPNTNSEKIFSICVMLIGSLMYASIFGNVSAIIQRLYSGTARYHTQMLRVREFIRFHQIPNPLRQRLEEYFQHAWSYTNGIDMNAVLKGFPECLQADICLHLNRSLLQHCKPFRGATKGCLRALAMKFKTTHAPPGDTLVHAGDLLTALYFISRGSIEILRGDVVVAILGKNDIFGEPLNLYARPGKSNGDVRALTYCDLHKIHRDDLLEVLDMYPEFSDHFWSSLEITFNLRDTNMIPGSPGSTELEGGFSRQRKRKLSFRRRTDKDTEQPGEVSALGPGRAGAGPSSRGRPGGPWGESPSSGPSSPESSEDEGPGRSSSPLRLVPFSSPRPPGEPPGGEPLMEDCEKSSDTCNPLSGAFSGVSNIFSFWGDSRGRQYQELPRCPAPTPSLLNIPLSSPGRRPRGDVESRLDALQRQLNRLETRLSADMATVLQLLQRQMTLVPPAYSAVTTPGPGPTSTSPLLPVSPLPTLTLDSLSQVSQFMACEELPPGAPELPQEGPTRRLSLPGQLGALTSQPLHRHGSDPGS
smiles,measurement,setting,value
CNCCCC1c2ccccc2C=Cc2ccccc21,"activity, negative = inhibition",[1],inconclusive: -2.83% [at 35.3 µM]
same,Potency,[2],"inconclusive: 33.5 µM [activator, single point]"
same,Potency,[3],"inconclusive: 26.6 µM [cytotoxic, partial curve, poor fit]"
same,Potency,[4],"inconclusive: 11.9 µM [activator, partial curve, poor fit]"
same,Potency,[5],"inconclusive: 12.6 µM [activator, single point]"
same,Potency,[6],inconclusive: 23.9 µM [inhibitor]
C=C(C)C(=O)OCC(C)C,"activity, negative = inhibition",[1],inconclusive: -21.3% and inconclusive: -0.19%
same,Potency,[7],active: 39.8 µM
same,Potency,[3],"inconclusive: 27.7 µM [cytotoxic, single point]"
same,Potency,[8],"inconclusive: 90.5 µM [inhibitor, single point]"
same,Potency,[9],"inconclusive: 80.7 µM [inhibitor, partial curve, poor fit] and inactive"
CN(C)CCCN1c2ccccc2Sc2ccccc21,"activity, negative = inhibition",[1],inconclusive: -1.71% [at 35.3 µM]
same,Potency,[10],"inconclusive: 33.5 µM [cytotoxic, single point]"
NC[C@H](O)c1ccc(O)c(O)c1,"activity, negative = inhibition",[1],inconclusive: 9.75% [at 35.3 µM]
same,Potency,[7],"inconclusive: 30.6 µM [cytotoxic, partial curve, poor fit]"
same,Potency,[10],inconclusive: 68.6 µM [cytotoxic]
same,Potency,[4],"inconclusive: 27.3 µM [activator, single point]"
same,Potency,[11],"inconclusive: 22.4 µM [inhibitor, partial curve, poor fit]"
same,Potency,[8],"inconclusive: 31.7 µM [inhibitor, partial curve, poor fit] and inconclusive: 34.7 µM [inhibitor, single point]"
CO[C@@H]1[C@@H](O[C@@H]2O[C@H](C)[C@@H](O[C@H]3C[C@@](C)(O)[C@@H](O)[C@H](C)O3)[C@H](N(C)C)[C@H]2O)[C@@H](CC=O)C[C@@H](C)[C@@H](O[C@@H]2CC[C@H](N(C)C)[C@@H](C)O2)/C=C/C=C/C[C@@H](C)OC(=O)C[C@H]1OC(C)=O,"activity, negative = inhibition",[1],inconclusive: 6.18% [at 35.3 µM]
same,Potency,[7],active: 26.6 µM
same,Potency,[4],inconclusive: 33.5 µM [activator]
same,Potency,[8],inactive
C[C@H](N)C(=O)N[C@@H](C)C(=O)NC1[C@H]2CN(c3nc4c(cc3F)c(=O)c(C(=O)O)cn4-c3ccc(F)cc3F)C[C@@H]12 (some centres not stated),Potency,[1],"inconclusive: 19 µM [fluorescent, partial curve, poor fit]"
same,Potency,[7],"inconclusive: 29.8 µM [cytotoxic, single point]"
same,Potency,[3],"inconclusive: 29.8 µM [cytotoxic, single point]"
same,Potency,[12],"inconclusive: 27.5 µM [inhibitor, partial curve, poor fit]"
CCCCCCCCCCCCCCCCN,"activity, negative = inhibition",[1],inconclusive: 2.2% [at 35.3 µM]
same,Potency,[7],inactive
same,Potency,[11],"inconclusive: 38.9 µM [inhibitor, single point]"
same,Potency,[8],"inconclusive: 43.6 µM [inhibitor, single point]"
same,Potency,[12],inactive
